# Reference: publication PMC6282700 (Cell reports, 2018)
# B1: CBR71 fragment of human CARMIL1a ([…]) (domain or fragment)
# chain: not shown
# Biological target: actin capping protein (CP), mouse α1/β2 heterodimer (mouse, UniProt P47753; P47757-2)
# Assay: fluorescence polarisation
binder,measurement,value
B1,Kd,0.47 ± 0.13 nM
